The whole screen tested about 39,000 compounds, of which about 220 (0.56%) showed activity. Some of the results follow.
What follows are compounds tested on Escherichia coli K-12 BW25113 (assay: relative growth (OD600 normalised to plate interquartile mean) (fraction); higher = less growth inhibition, active = 0.2 or less). Details: 50 µM; LB; incubation time: overnight (16-24 h).
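Also: static incubation at 37 °C against the wild-type strain, values averaged over two biological replicates.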

Compound	relative growth
NNC(=O)C1=NO[C@H]2COC3(CCN(c4ncccn4)CC3)OC[C@@H]12	inactive: 0.972
Cc1ccc(S(=O)(=O)N(C)C[C@H]2Oc3ccc(NS(=O)(=O)c4cn(C)cn4)cc3C(=O)N([C@@H](C)CO)C[C@@H]2C)cc1	inactive: 0.964
COCCNC(=O)C[C@@H]1CC[C@@H]2[C@H](COc3ccc(NC(=O)Nc4cccc(F)c4)cc3C(=O)N2C)O1	inactive: 0.993
C[C@H]1CN([C@@H](C)CO)C(=O)c2cc(NC(=O)Nc3ccccc3)ccc2O[C@H]1CN(C)Cc1ccc(C(F)(F)F)cc1	inactive: 0.98
C[C@@H]1CN([C@H](C)CO)C(=O)c2cc(NC(=O)Nc3cccc4ccccc34)ccc2O[C@@H](C)CCCCO[C@@H]1CN(C)C(=O)NC1CCCCC1	inactive: 1.03
Cc1ncc([N+](=O)[O-])cc1C(=O)O	inactive: 0.992
C[C@H]1CN([C@@H](C)CO)C(=O)CCCn2nncc2CO[C@@H]1CN(C)C(=O)Nc1cccc(Oc2ccccn2)c1	inactive: 0.975
CO[C@H]1CN(C)C(=O)c2ccc(NS(=O)(=O)c3cn(C)cn3)cc2OC[C@@H](C)N(CC2CC2)C[C@@H]1C	inactive: 1
CCC(=O)N(C)C[C@@H]1Oc2ncc(C#C[C@H](C)O)cc2C(=O)N([C@H](C)CO)C[C@@H]1C	inactive: 1.02
O=C(CN1CCOCC1)NCC[C@@H]1CC[C@@H](NC(=O)Nc2ccccc2)[C@@H](CO)O1	inactive: 1
Nc1ccc(-n2cnnn2)cc1	inactive: 0.933
C[C@H](CO)N1C[C@H](C)[C@@H](CN(C)Cc2ccc(C(=O)O)cc2)Oc2c(NC(=O)C3CC3)cccc2C1=O	inactive: 0.995
C[C@H]1CN([C@@H](C)CO)C(=O)Cc2cc(NS(=O)(=O)c3cn(C)cn3)ccc2O[C@H]1CN(C)Cc1ccc(C(=O)Nc2ccccc2N)cc1	inactive: 1
COCCNC(=O)[C@H]1[C@H](CO)[C@H]2Cn3c(ccc(-c4ccccc4F)c3=O)[C@@H]1N2S(C)(=O)=O	inactive: 1
COc1ccc(NC(=O)N(C)C[C@H]2Oc3c(NC(=O)C4CC4)cccc3C(=O)N([C@@H](C)CO)C[C@@H]2C)cc1	inactive: 0.998
COc1ccccc1-c1ccc2c(c1)O[C@H](CN(C)CC1CCOCC1)[C@H](C)CN([C@@H](C)CO)S2(=O)=O	inactive: 1.02
C[C@H]1CN([C@@H](C)CO)C(=O)Cc2cc(NS(=O)(=O)c3cn(C)cn3)ccc2O[C@@H]1CN(C)C(=O)Nc1ccccc1	inactive: 1.02
COc1ccccc1CNC(=O)C[C@H]1CC[C@@H]2[C@H](COC[C@@H](O)CN2C(=O)Nc2ccc(Cl)cc2)O1	inactive: 0.957
C[C@H](CO)N1C[C@H](C)[C@H](CN(C)S(=O)(=O)c2cn(C)cn2)Oc2ccc(NC(=O)CCCCCC(=O)Nc3ccccc3N)cc2CC1=O	inactive: 0.997
C[C@H](CO)N1C[C@H](C)[C@@H](CN(C)Cc2ccc(C(F)(F)F)cc2)OCCCC[C@H](C)Oc2ccc(NS(=O)(=O)c3ccc(F)cc3)cc2C1=O	inactive: 1.02
Cn1ncc(Br)c1C(=O)NN	inactive: 0.981
COc1ccc(S(=O)(=O)N(C)C[C@@H]2OCCCC[C@@H](C)Oc3ccc(NC(=O)Nc4cccc5ccccc45)cc3C(=O)N([C@@H](C)CO)C[C@@H]2C)cc1	inactive: 1.01

Compound	relative growth
C=C1CCC(O)CC1=CC=C1CCCC2(C)C1CCC2C(C)CCCC(C)C (centres undefined)	inactive: 0.932
Cc1cn(C2C=CC(CO)O2)c(=O)[nH]c1=O (centres undefined)	inactive: 0.808
Cc1noc(C)c1NC(=O)Nc1ccc2c(c1)C(=O)N([C@@H](C)CO)C[C@@H](C)[C@H](CN(C)Cc1ccc(Cl)c(Cl)c1)O2	inactive: 0.99
C[C@H](CO)N1C[C@H](C)[C@H](CN(C)Cc2ccc(-c3ccccc3)cc2)Oc2c(NS(=O)(=O)c3ccc(Cl)cc3)cccc2C1=O	inactive: 1.01
O=S1(=O)C[C@H](NCCO)[C@@H](O)C1	inactive: 0.982
CCOC(=O)[C@@H]1C(Cc2ccccc2)=CN(CCc2ccc(OC)c(OC)c2)C(=O)N1c1ccc(OC)cc1	inactive: 1.01
C[C@H]1CCCCO[C@H](CN(C)Cc2ccc(C(=O)O)cc2)[C@@H](C)CN([C@@H](C)CO)C(=O)c2cc(NC(=O)CCC(F)(F)F)ccc2O1	inactive: 1.03
C[C@@H]1CN([C@H](C)CO)C(=O)Cc2cc(NC(=O)Nc3ccc4c(c3)OCO4)ccc2O[C@@H]1CN(C)Cc1ccc(-c2ccccc2)cc1	inactive: 0.927
Cc1noc(C)c1NC(=O)N[C@@H]1CC[C@H](CC(=O)N2CCN(C)CC2)O[C@@H]1CO	inactive: 1.03
C[C@@H]1CCCCO[C@@H](CN(C)Cc2ccc(C(F)(F)F)cc2)[C@@H](C)CN([C@@H](C)CO)C(=O)c2cc(NC(=O)CCC(F)(F)F)ccc2O1	inactive: 1.02
N=C(NO)c1cccc(C(=N)NO)n1	inactive: 0.974
C[C@@H]1CN([C@H](C)CO)C(=O)Cc2cc(NC(=O)CCC(F)(F)F)ccc2O[C@H]1CN(C)C(=O)Nc1ccc(C(F)(F)F)cc1	inactive: 1
C[C@@H]1CN([C@H](C)CO)C(=O)c2c(c3ccccc3n2C)-c2ccccc2CO[C@@H]1CN(C)Cc1cccc(O)c1	inactive: 0.97
C[C@H]1CCCCO[C@H](CN(C)Cc2ccccc2)[C@@H](C)CN([C@@H](C)CO)C(=O)c2cc(NC(=O)Nc3ccc(F)cc3)ccc2O1	inactive: 1
C[C@@H]1CN([C@H](C)CO)C(=O)Cc2cc(NC(=O)Nc3ccccc3)ccc2O[C@H]1CN(C)Cc1ccc(C(=O)Nc2ccccc2N)cc1	inactive: 1.01
C[C@@H]1O[C@@H](O[C@H]2[C@@H](Oc3cc(O)c4c(c3)O[C@H](c3ccc(O)cc3)CC4=O)O[C@H](CO)[C@@H](O)[C@@H]2O)[C@H](O)[C@H](O)[C@H]1O	inactive: 1
C[C@@H]1CCCCO[C@@H](CN(C)Cc2ccccc2)[C@H](C)CN([C@@H](C)CO)C(=O)c2cc(NC(=O)NC3CCCCC3)ccc2O1	inactive: 1.01
Cc1nc2c(=O)n(C)c(=O)n(C)c2nc1Cl	inactive: 0.948
C[C@@H]1CN([C@@H](C)CO)C(=O)c2cc(NC(=O)Nc3ccc(C(F)(F)F)cc3)ccc2O[C@@H](C)CCCCO[C@H]1CN(C)S(=O)(=O)c1ccccc1	inactive: 0.989
Cc1ccc([N+](=O)[O-])cc1S(N)(=O)=O	inactive: 1.02
Cc1oncc1C(=O)Nc1ccc(C(F)(F)F)cc1	inactive: 0.955
C[C@@H]1CN([C@@H](C)CO)C(=O)CCCn2nncc2CO[C@H]1CN(C)C(=O)Nc1ccnc(N2CCOCC2)c1	inactive: 0.984

Compound	relative growth
Cc1cc(C(=O)Nc2cccc3c2O[C@@H](CN(C)S(=O)(=O)c2ccccc2)[C@@H](C)CN([C@H](C)CO)C3=O)n(C)n1	inactive: 1.02
O=C1CCC(=O)N1CN1CCOCC1	inactive: 1.03
COC(=O)[C@@H](Cc1ccccc1)N[C@H](/C=C/C1CC1)[C@@H](O)CCn1cc(-c2cccc(/C=C/C(=O)NO)c2)nn1	inactive: 1
N#C[C@H]1[C@H](c2ccc(C#Cc3ccccn3)cc2)[C@@H](CO)N1C(=O)CN1CCOCC1	inactive: 0.977
COCCn1cc(N)cn1	inactive: 0.981
C[C@@H]1CN([C@H](C)CO)C(=O)Cc2cc(NS(=O)(=O)c3cn(C)cn3)ccc2O[C@H]1CN(C)C(=O)Nc1ccc(F)cc1	inactive: 0.998
COc1ccc(CNc2nc(N3CCCC3CO)ncc2C(=O)NCc2ncccn2)cc1Cl (centres undefined)	inactive: 1.04
Cc1ccc(S(=O)(=O)N(C)C[C@@H]2Oc3c(NC(=O)c4cc(C)nn4C)cccc3C(=O)N([C@@H](C)CO)C[C@@H]2C)cc1	inactive: 0.972
C[C@@H]1CN([C@H](C)CO)C(=O)c2cc(-c3cccc(C(=O)N(C)C)c3)cnc2O[C@@H]1CN(C)S(=O)(=O)c1cccc(F)c1	inactive: 0.976
C[C@@H]1CCCCO[C@@H](CN(C)C(=O)Nc2ccc3c(c2)OCO3)[C@H](C)CN([C@@H](C)CO)C(=O)c2cc(NC(=O)Nc3ccc(C(F)(F)F)cc3)ccc2O1	inactive: 1.02
O=C(O)c1cccnc1Nc1cccc(C(F)(F)F)c1	inactive: 0.978
C[C@H](CO)N1C[C@H](C)[C@@H](CN(C)Cc2ccc(C(=O)Nc3ccccc3N)cc2)Oc2c(NC(=O)Nc3ccc4c(c3)OCO4)cccc2C1=O	inactive: 1.03
C=C(O)C(=O)O	inactive: 1.03
O=C(C[C@@H]1C=C[C@@H](NC(=O)CN2CCOCC2)[C@@H](CO)O1)NC1CCC1	inactive: 0.974
CO[C@H](CN(C)S(=O)(=O)c1ccc(F)cc1)[C@H](C)CN([C@H](C)CO)S(=O)(=O)c1cccc(Cl)c1	inactive: 0.984
CC1CC(OC(=O)C(O)c2ccccc2)CC(C)(C)C1 (centres undefined)	inactive: 1.09
Cc1ccc(S(=O)(=O)Nc2ccc3c(c2)C(=O)N([C@@H](C)CO)C[C@@H](C)[C@@H](CN(C)Cc2ccc(C(F)(F)F)cc2)OCCCC[C@@H](C)O3)cc1	inactive: 1.08
Cc1noc(C)c1NC(=O)N(C)C[C@@H]1OCCCC[C@@H](C)Oc2ccc(NC(=O)Nc3ccc4c(c3)OCO4)cc2C(=O)N([C@@H](C)CO)C[C@H]1C	inactive: 1.03
Cc1noc(C)c1NC(=O)N(C)C[C@@H]1Oc2ccc(NC(=O)NC(C)C)cc2CC(=O)N([C@@H](C)CO)C[C@@H]1C	inactive: 0.977
C[C@@H]1CCCCO[C@@H](CN(C)Cc2ccc3c(c2)OCO3)[C@@H](C)CN([C@H](C)CO)C(=O)c2cc(NC(=O)Nc3ccc4c(c3)OCO4)ccc2O1	inactive: 0.997
